# Experimental data reported in the supplement of paper PMC8728848.
# The other results are listed elsewhere or left out.
# B1: NanI (Corynebacterium diphtheriae), C6JSW7 (protein)
# chain: MTNTLESNPMTTTTGALTITFATTCDGPLAHIPHHLDLNIIHGRIQGTTAHRRIDAEDPDGLDDGLPHHLCLSVDTTGTHLFIDGYEAFSTTQTEWFDTSELTLNPHGDLTIIDHQILNHAPTPRQARNLAPAAEPLVWFAGSHLSTRDTQRISHLTHGSLRLLMKTRGTGQGGVAFQAHTINGDLTLEIIDGTLIFSVRCHDEDYVRITAPGRWDDGQIYDVVIVCGRGATDIYVDGQQLIHSPGAAFFNDLSGELSVHIGTAASGVRLFGEVQSGMIYPHVFNHHQVQRLATVEPIATQALFDCLLDGAQSYRIPSLITTDSGVIIAGADKRVSIANDAPNDIDFVLRRSVDGGRTWQPPRTILQLPDTACVTDSVLLQDHTTGRIFAFLDQFPAGIGQPNAAFGTGFDADGNRIGHFADGSTCTMPREVDQLEASFFSDPHTAPPGIVFQHPSCHLWMLTSDDDGLTWSTPRDLTPDVKEEWMRFCGTSPGNGIQLQRDTHAGRLLIPMYYTKGDQFFAAALYSDDHGDTWHRGESPDLEMYESTLVEASDGSVLLWARNQHPSGAVAHARSTDGGHSWSQVTFNPNVPEIFSQPNALRVTNPDGIIFANASQLLPFRGRGVLRMSTNDGASWQHNRVFNPRHYVYQCMTQLPDGSIGLLWEREMQGLFFSIIPMTWIMQGYAL
# Key:
# Experiment in all cases: glycan array binding signal (z-score within array); higher = stronger binding
# Settings in all cases: glycan notation: IUPAC condensed, linker removed
# Gal(a1-3)Gal = target: Gal(a1-3)Gal
# In short: (§1)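 Glycan array binding is given as a within-array Z-score, which can be read as non-binding when negative. The arrays, 3228 of them, came from the Consortium for Functional Glycomics database and were retained only where the protein sequence was available. Z-scores were averaged across arrays of the same protein sequence at different concentrations or buffers and across linkers.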
# Gal(a1-3)Gal(b1-3)GlcNAc = target: Gal(a1-3)Gal(b1-3)GlcNAc
# In short: as §1
# [1] = target: Gal(a1-3)Gal(b1-3)GlcNAc(b1-2)Man(a1-3)[Gal(a1-3)Gal(b1-3)GlcNAc(b1-2)Man(a1-6)]Man(b1-4)GlcNAc(b1-4)GlcNAc
# In short: as §1
# [2] = target: Gal(a1-3)Gal(b1-3)GlcNAc(b1-3)GalNAc
# In short: as §1
# [3] = target: Gal(a1-3)Gal(b1-3)[Fuc(a1-4)]GlcNAc(b1-2)Man(a1-3)[Gal(a1-3)Gal(b1-3)[Fuc(a1-4)]GlcNAc(b1-2)Man(a1-6)]Man(b1-4)GlcNAc(b1-4)GlcNAc
# In short: as §1
# Gal(a1-3)Gal(b1-4)Glc = target: Gal(a1-3)Gal(b1-4)Glc
# In short: as §1
# Gal(a1-3)Gal(b1-4)GlcNAc = target: Gal(a1-3)Gal(b1-4)GlcNAc
# In short: as §1
# [4] = target: Gal(a1-3)Gal(b1-4)GlcNAc(b1-3)GalNAc
# In short: as §1
# [5] = target: Gal(a1-3)Gal(b1-4)[Fuc(a1-3)]GlcNAc
# In short: as §1
# [6] = target: Gal(a1-3)Gal(b1-4)[Fuc(a1-3)]GlcNAc(b1-2)Man(a1-3)[Gal(a1-3)Gal(b1-4)[Fuc(a1-3)]GlcNAc(b1-2)Man(a1-6)]Man(b1-4)GlcNAc(b1-4)GlcNAc
# In short: as §1
# Gal(a1-3)GalNAc = target: Gal(a1-3)GalNAc
# In short: as §1
# [7] = target: Gal(a1-3)[Gal(a1-4)]Gal(b1-4)GlcNAc
# In short: as §1
# [8] = target: Gal(a1-4)Gal(b1-3)GlcNAc(b1-2)Man(a1-3)[Gal(a1-4)Gal(b1-3)GlcNAc(b1-2)Man(a1-6)]Man(b1-4)GlcNAc(b1-4)GlcNAc
# In short: as §1
# Gal(a1-4)Gal(b1-4)Glc = target: Gal(a1-4)Gal(b1-4)Glc
# In short: as §1
# Gal(a1-4)Gal(b1-4)GlcNAc = target: Gal(a1-4)Gal(b1-4)GlcNAc
# In short: as §1
# [9] = target: Gal(a1-4)Gal(b1-4)GlcNAc(b1-2)Man(a1-3)[Gal(a1-4)Gal(b1-4)GlcNAc(b1-2)Man(a1-6)]Man(b1-4)GlcNAc(b1-4)GlcNAc
# In short: as §1
# [10] = target: Gal(a1-4)Gal(b1-4)GlcNAc(b1-3)Gal(b1-4)Glc
# In short: as §1
# Gal(a1-4)GlcNAc = target: Gal(a1-4)GlcNAc
# In short: as §1
# Gal(a1-6)Glc = target: Gal(a1-6)Glc
# In short: as §1
# Gal(b1-2)Gal = target: Gal(b1-2)Gal
# In short: as §1
# Gal(b1-3)Gal = target: Gal(b1-3)Gal
# In short: as §1
# Gal(b1-3)Gal(b1-4)GlcNAc = target: Gal(b1-3)Gal(b1-4)GlcNAc
# In short: as §1
# [11] = target: Gal(b1-3)Gal(b1-4)GlcNAc(b1-2)Man(a1-3)[Gal(b1-3)Gal(b1-4)GlcNAc(b1-2)Man(a1-6)]Man(b1-4)GlcNAc(b1-4)GlcNAc
# In short: as §1
# Gal(b1-3)GalNAc = target: Gal(b1-3)GalNAc
# In short: as §1
# [12] = target: Gal(b1-3)GalNAc(a1-3)[Fuc(a1-2)]Gal(b1-4)Glc
# In short: as §1
# [13] = target: Gal(b1-3)GalNAc(a1-3)[Fuc(a1-2)]Gal(b1-4)GlcNAc
# In short: as §1
# [14] = target: Gal(b1-3)GalNAc(b1-3)Gal(a1-4)Gal(b1-4)Glc
# In short: as §1
# [15] = target: Gal(b1-3)GalNAc(b1-4)Gal(b1-4)Glc
# In short: as §1
# [16] = target: Gal(b1-3)GalNAc(b1-4)[Neu5Ac(a2-3)]Gal(b1-4)Glc
# In short: as §1
# Gal(b1-3)GlcNAc = target: Gal(b1-3)GlcNAc
# In short: as §1
binder,measurement,setting,value
B1,glycan array binding signal (z-score),Gal(a1-3)Gal,-0.906
same,glycan array binding signal (z-score),Gal(a1-3)Gal(b1-3)GlcNAc,0.012
same,glycan array binding signal (z-score),[1],0.294
same,glycan array binding signal (z-score),[2],-0.661
same,glycan array binding signal (z-score),[3],0.116
same,glycan array binding signal (z-score),Gal(a1-3)Gal(b1-4)Glc,-0.299
same,glycan array binding signal (z-score),Gal(a1-3)Gal(b1-4)GlcNAc,-0.25
same,glycan array binding signal (z-score),[4],-0.278
same,glycan array binding signal (z-score),[5],-1.04
same,glycan array binding signal (z-score),[6],1.26
same,glycan array binding signal (z-score),Gal(a1-3)GalNAc,-0.16
same,glycan array binding signal (z-score),[7],-0.388
same,glycan array binding signal (z-score),[8],-0.243
same,glycan array binding signal (z-score),Gal(a1-4)Gal(b1-4)Glc,0.553
same,glycan array binding signal (z-score),Gal(a1-4)Gal(b1-4)GlcNAc,-0.651
same,glycan array binding signal (z-score),[9],0.804
same,glycan array binding signal (z-score),[10],-0.764
same,glycan array binding signal (z-score),Gal(a1-4)GlcNAc,-0.058
same,glycan array binding signal (z-score),Gal(a1-6)Glc,-0.551
same,glycan array binding signal (z-score),Gal(b1-2)Gal,-0.036
same,glycan array binding signal (z-score),Gal(b1-3)Gal,0.381
same,glycan array binding signal (z-score),Gal(b1-3)Gal(b1-4)GlcNAc,0.247
same,glycan array binding signal (z-score),[11],0.865
same,glycan array binding signal (z-score),Gal(b1-3)GalNAc,-0.154
same,glycan array binding signal (z-score),[12],-0.472
same,glycan array binding signal (z-score),[13],-0.733
same,glycan array binding signal (z-score),[14],-0.183
same,glycan array binding signal (z-score),[15],-0.45
same,glycan array binding signal (z-score),[16],-0.921
same,glycan array binding signal (z-score),Gal(b1-3)GlcNAc,-0.5
